Results on 44 compounds are retold here after publication PMC4336329 (PLoS ONE, 2015).

The whole screen tested about 310,000 compounds, of which about 2,200 (0.71%) showed an effect of 50% or more. The effect is printed as a negative number. Some of the results follow.

Chain of human ether-à-go-go-related gene (hERG) potassium channel (Q12809 whole entry, looked up): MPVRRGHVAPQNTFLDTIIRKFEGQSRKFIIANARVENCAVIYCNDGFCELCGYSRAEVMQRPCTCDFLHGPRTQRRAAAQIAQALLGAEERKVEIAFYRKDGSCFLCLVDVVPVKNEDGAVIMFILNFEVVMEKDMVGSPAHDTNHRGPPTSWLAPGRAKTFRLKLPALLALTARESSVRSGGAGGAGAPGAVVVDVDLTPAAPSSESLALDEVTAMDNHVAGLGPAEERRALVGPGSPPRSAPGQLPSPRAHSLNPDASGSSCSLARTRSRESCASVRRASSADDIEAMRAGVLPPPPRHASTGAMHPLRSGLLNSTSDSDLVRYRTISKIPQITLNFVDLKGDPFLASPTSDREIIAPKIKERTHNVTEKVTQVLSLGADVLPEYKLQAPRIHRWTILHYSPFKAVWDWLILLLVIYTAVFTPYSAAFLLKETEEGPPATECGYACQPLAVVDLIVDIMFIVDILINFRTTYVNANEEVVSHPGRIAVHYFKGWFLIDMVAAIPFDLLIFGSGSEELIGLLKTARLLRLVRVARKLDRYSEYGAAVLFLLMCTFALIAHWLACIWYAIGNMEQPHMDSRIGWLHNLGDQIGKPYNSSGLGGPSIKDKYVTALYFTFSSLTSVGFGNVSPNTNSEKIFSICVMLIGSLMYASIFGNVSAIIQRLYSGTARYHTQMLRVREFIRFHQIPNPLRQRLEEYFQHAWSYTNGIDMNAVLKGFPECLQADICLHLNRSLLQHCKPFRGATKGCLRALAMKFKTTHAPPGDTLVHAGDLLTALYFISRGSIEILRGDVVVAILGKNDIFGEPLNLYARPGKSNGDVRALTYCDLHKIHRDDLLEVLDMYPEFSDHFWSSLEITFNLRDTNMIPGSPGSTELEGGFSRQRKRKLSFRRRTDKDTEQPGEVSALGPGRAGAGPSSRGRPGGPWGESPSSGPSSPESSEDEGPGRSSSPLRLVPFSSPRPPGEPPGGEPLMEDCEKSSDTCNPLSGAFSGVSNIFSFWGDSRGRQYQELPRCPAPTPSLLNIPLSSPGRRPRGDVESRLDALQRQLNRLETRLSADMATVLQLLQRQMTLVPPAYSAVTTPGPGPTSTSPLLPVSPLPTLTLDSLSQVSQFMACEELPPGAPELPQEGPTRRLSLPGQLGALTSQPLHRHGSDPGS

This assay has as its target human ether-à-go-go-related gene (hERG) potassium channel (human, UniProt Q12809). Description: primary screen, population patch clamp on CHO cells stably expressing hERG.
Turning to `Cn1nc(C(=O)NCc2cccs2)c2ccccc2c1=O`, the “hERG current change (%, negative = inhibition) at 1uM” value came to 16.3%.

For the compound `NC(=O)C1CCN(C(=S)NCc2ccc3c(c2)OCO3)CC1`, the “hERG current change (%, negative = inhibition) at 1uM” value was determined as 14.1%.

Turning to `O=C(Nc1ccc2c(c1)OCO2)c1cncc(Br)c1`, the “hERG current change (%, negative = inhibition) at 1uM” value stood at 25.2%.

Turning to `CC1=[N+]([O-])C(C)(C)C(C)N(O)C1=O` (centres unmarked), the “hERG current change (%, negative = inhibition) at 1uM” value came to 11.1%.

As for `Cc1cc(N2CCN(c3nc(-c4ccccc4)cs3)CC2)c2ccccc2n1`, the “hERG current change (%, negative = inhibition) at 1uM” value is reported as -7.92%.

Consider `Cc1ccc(C23CC4CC(CC(NC(=O)NCCN(C)C)(C4)C2)C3)cc1`, for which the “hERG current change (%, negative = inhibition) at 1uM” value is on record as -6.95%.

Take `CCOC(=O)c1c(S(=O)(=O)N2CCc3ccccc32)c(C)n(C)c1C`: the “hERG current change (%, negative = inhibition) at 1uM” value came to 2.83%.

On to `CCn1c(SCC(=O)Nc2ccc(S(N)(=O)=O)cc2)nnc1-c1ccccc1OC`, for which the “hERG current change (%, negative = inhibition) at 1uM” value turned out to be 7.25%.

With `CC(C)(C)NC(=O)C12CCC(C)(c3nc4ccccc4nc31)C2(C)C` (centres unmarked), the “hERG current change (%, negative = inhibition) at 1uM” value was found to be 9.01%.

With `COc1ccc(-c2noc(CN(C)C3CCOCC3)n2)cc1`, the “hERG current change (%, negative = inhibition) at 1uM” value was -1.29%.

As for `Cc1onc(-c2ccccc2)c1CNC(=O)Nc1ccccc1`, the “hERG current change (%, negative = inhibition) at 1uM” value came to 13.2%.

`Cc1ncc([N+](=O)[O-])n1CC(=O)NC1CCCCC1`: the “hERG current change (%, negative = inhibition) at 1uM” value is listed as 5.1%.

For `Cc1cccc(NC(=O)C2CCCN(C(=O)Nc3ccccc3)C2)c1C` (centres unmarked), the “hERG current change (%, negative = inhibition) at 1uM” value is recorded as -1.89%.

As for `Cc1ccc2[nH]c3c(=O)n(CC(=O)Nc4ccccc4N4CCN(C)CC4)ncc3c2c1`, the “hERG current change (%, negative = inhibition) at 1uM” value stood at 3.92%.

Turning to `Cc1ccccc1OCCC(=O)OCC(=O)NC1CCS(=O)(=O)C1` (centres unmarked), the “hERG current change (%, negative = inhibition) at 1uM” value is recorded as 18.5%.

Regarding `O=C(NCCc1ccccc1)C1c2ccccc2C(=O)N1Cc1cccs1` (centres unmarked), the “hERG current change (%, negative = inhibition) at 1uM” value is 6.82%.

On to `O=C(NCc1ccccn1)C1CC(=O)N(C2CCCC2)C1` (centres unmarked), for which the “hERG current change (%, negative = inhibition) at 1uM” value is recorded as 11.8%.

`COc1ccc(Oc2cc(C(F)(F)F)cnc2C(N)=O)cc1`: the “hERG current change (%, negative = inhibition) at 1uM” value was 15.8%.

For `COc1ccc(Cl)cc1N(C)C(=O)CCNC(=O)Cn1cnc2ccccc2c1=O`, the “hERG current change (%, negative = inhibition) at 1uM” value turned out to be 11.2%.

Take `Cc1ccc(C)c(NC(=O)C(Sc2ncnc3ccccc23)c2ccccc2)c1` (centres unmarked): the “hERG current change (%, negative = inhibition) at 1uM” value came to 7.99%.

Turning to `Cn1nnc2c(C(N)=O)ncn2c1=O`, the “hERG current change (%, negative = inhibition) at 1uM” value worked out at 0.556%.

With `CCOC(=O)c1[nH]c2ccc(OCC)cc2c1NC(=O)CN1CCN(c2ccccn2)CC1`, the “hERG current change (%, negative = inhibition) at 1uM” value is -8.9%.

Turning to `CN(C)S(=O)(=O)c1ccc(NC(=O)CNc2cc(S(=O)(=O)N3CCCC3)ccc2OCC(F)(F)F)cc1`, the “hERG current change (%, negative = inhibition) at 1uM” value is given as -3.08%.

For `CC1(C)CC(=O)C(C=NCCN2CCN(C3CC(=O)N(c4ccc(Br)cc4)C3=O)CC2)=C(O)C1` (centres unmarked), the “hERG current change (%, negative = inhibition) at 1uM” value is listed as 2.91%.

For `O=C(N1CCCCC1)C1(c2ccccc2)CCCCC1`, the “hERG current change (%, negative = inhibition) at 1uM” value turned out to be 12.9%.

On to `CCC(C)(C)n1nnnc1CN1CCN(c2ccc(OC)cc2)CC1`, for which the “hERG current change (%, negative = inhibition) at 1uM” value was 1.88%.

In the case of `Cc1cccc(CSc2nnc(-c3cccs3)n2Cc2ccco2)c1`, the “hERG current change (%, negative = inhibition) at 1uM” value was -2.15%.

`COc1ccc(C2C(C#N)=C(N)N(c3ncn[nH]3)C3=C2C(=O)CCC3)cc1` (centres unmarked): the “hERG current change (%, negative = inhibition) at 1uM” value came out at 25.9%.

As to `CCCSc1nnc(NC(=O)CSc2sc3c(O)cc(=O)[nH]c3c2C#N)s1`, the “hERG current change (%, negative = inhibition) at 1uM” value is -0.729%.

Take `CC(=O)Nc1ccc(NC(=O)CSc2nc3nc(-c4cccs4)cc(C(F)(F)F)c3c(=O)[nH]2)cc1`: the “hERG current change (%, negative = inhibition) at 1uM” value was 12.7%.

With `CC(=O)NCCc1ccc(S(=O)(=O)N2CCN(c3nc(-c4ccccc4)c(C)s3)CC2)cc1`, the “hERG current change (%, negative = inhibition) at 1uM” value is 10.7%.

With `S=C(NCc1ccco1)N1CCOCC1`, the “hERG current change (%, negative = inhibition) at 1uM” value came to 11.5%.

`CCOC(=O)c1ccc(NC(=S)N(CCCN2CCN(CC)CC2)Cc2cccs2)cc1`: the “hERG current change (%, negative = inhibition) at 1uM” value was -40.2%.

Take `O=C(/C=C/c1ccc(Cl)cc1)Nc1ccc(S(=O)(=O)Nc2ncccn2)cc1`: the “hERG current change (%, negative = inhibition) at 1uM” value came to 4.3%.

In the case of `COc1cccc(NC(=S)N2CCN(c3ccc([N+](=O)[O-])cc3)CC2)c1`, the “hERG current change (%, negative = inhibition) at 1uM” value is recorded as -9.45%.

Turning to `CCC(C(=O)N1CCN(c2cccc(Cl)c2)CC1)c1ccccc1` (centres unmarked), the “hERG current change (%, negative = inhibition) at 1uM” value is reported as 3.36%.

`O=C(c1cc2cc(C(F)(F)F)ccc2s1)N1CCOCC1`: the “hERG current change (%, negative = inhibition) at 1uM” value was determined as 8.65%.

With `Cc1ccc(NC(=O)c2c(-c3c(F)cccc3Cl)noc2C)cc1F`, the “hERG current change (%, negative = inhibition) at 1uM” value was 2.88%.

`CCN(CC)c1ccc(C(=O)OCC(=O)c2ccco2)cc1`: the “hERG current change (%, negative = inhibition) at 1uM” value came out at 14.3%.

Consider `COc1ccc(C(=O)COC(=O)CN2C(=O)C3C4CCC(C4)C3C2=O)cc1` (centres unmarked), for which the “hERG current change (%, negative = inhibition) at 1uM” value worked out at 0.592%.

With `O=C(c1ccncc1)N1CCN(C(=O)c2ccco2)CC1`, the “hERG current change (%, negative = inhibition) at 1uM” value was 11.8%.

Take `O=c1[nH]cc(-c2ccc(Br)cc2)n1Cc1ccccc1`: the “hERG current change (%, negative = inhibition) at 1uM” value is given as 9.7%.

With `COC(=O)/C=C1\SC(N2CCOCC2)=C(c2ccc(OC)cc2)C1=O`, the “hERG current change (%, negative = inhibition) at 1uM” value was -1.69%.

In the case of `COc1cc(NC(=O)CN2C(=O)C(C)N(c3ccc(C)cc3)C2=O)cc(OC)c1` (centres unmarked), the “hERG current change (%, negative = inhibition) at 1uM” value is recorded as 12.4%.
